The source of these data is article PMC10244618.

The chains behind the UniProt entries cited, without tags or fusion partners. Where a name states a change or a piece, a line headed by the entry shows the natural chain unless it says otherwise. A line that says so, or that is headed by a name, gives the form on record, which may keep a tag or linker. Residues count along the entry.
UniProt P35240: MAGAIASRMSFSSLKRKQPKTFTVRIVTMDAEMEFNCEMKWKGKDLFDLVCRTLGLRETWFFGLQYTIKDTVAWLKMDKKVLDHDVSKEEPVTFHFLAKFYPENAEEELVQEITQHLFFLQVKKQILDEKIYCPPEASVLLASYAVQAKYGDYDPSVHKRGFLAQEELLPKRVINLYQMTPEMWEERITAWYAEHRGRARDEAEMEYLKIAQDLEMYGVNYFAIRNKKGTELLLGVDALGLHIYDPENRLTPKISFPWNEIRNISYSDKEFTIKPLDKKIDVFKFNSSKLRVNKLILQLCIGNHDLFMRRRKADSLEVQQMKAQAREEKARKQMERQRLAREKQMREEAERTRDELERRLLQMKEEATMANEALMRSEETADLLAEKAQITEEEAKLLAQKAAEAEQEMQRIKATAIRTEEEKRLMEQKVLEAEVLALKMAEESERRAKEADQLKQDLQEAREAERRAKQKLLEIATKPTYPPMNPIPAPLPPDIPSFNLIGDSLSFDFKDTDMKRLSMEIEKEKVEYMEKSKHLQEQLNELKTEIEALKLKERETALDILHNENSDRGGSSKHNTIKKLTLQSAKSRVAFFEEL
NF2 C-terminal half of isoform 1 (AA M308-595): residues 308-595 of P35240
NF2 isoform 7, full length (P35240-4, form named): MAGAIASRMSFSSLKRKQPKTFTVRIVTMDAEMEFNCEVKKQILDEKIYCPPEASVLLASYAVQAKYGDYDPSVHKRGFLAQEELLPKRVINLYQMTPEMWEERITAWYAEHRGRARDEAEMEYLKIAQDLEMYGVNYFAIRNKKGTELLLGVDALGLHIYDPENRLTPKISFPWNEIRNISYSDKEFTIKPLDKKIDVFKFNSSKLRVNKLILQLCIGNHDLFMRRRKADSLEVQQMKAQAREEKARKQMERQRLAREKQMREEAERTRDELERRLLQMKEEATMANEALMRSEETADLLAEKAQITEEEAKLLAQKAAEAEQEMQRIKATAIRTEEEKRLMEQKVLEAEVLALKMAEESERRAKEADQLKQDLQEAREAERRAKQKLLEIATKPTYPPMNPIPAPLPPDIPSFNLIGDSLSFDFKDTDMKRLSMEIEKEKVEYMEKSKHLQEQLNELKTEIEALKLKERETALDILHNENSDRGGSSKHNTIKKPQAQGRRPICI
NF2 N-terminal half of isoform 7 (AA 1-K249) (P35240-4, form named): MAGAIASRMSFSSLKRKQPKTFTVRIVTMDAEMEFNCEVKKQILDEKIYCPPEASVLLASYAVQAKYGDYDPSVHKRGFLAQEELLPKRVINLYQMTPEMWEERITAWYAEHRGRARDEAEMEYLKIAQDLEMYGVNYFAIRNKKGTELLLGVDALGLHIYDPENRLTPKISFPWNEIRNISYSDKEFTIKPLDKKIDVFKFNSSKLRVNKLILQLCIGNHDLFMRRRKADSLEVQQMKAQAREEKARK
NF2 isoform 7 with an exon 17 derived C-terminus (P35240-1, form named): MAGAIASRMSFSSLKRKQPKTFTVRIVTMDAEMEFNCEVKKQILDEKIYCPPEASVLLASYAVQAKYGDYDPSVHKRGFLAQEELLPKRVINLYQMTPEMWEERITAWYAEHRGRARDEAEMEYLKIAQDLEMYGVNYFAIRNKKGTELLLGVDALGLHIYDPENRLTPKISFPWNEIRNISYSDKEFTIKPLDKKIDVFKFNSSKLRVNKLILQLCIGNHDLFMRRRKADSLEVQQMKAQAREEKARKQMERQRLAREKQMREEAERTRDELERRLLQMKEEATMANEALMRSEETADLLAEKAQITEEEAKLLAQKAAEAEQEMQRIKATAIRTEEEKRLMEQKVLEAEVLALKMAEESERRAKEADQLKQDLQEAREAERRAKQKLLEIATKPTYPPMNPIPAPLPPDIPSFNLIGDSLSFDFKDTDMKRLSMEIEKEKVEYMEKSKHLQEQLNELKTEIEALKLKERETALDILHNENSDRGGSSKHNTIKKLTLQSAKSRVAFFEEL
NF2 C-terminal half of isoform 7 (AA M225-507) (P35240-4, form named): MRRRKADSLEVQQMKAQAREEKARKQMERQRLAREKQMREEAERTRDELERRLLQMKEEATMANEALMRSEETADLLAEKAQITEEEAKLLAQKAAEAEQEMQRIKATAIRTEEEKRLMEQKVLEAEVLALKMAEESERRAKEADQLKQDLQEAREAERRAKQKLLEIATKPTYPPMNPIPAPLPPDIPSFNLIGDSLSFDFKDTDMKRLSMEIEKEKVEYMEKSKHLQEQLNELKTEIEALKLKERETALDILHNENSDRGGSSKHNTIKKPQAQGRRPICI
UniProt Q9Y6C2: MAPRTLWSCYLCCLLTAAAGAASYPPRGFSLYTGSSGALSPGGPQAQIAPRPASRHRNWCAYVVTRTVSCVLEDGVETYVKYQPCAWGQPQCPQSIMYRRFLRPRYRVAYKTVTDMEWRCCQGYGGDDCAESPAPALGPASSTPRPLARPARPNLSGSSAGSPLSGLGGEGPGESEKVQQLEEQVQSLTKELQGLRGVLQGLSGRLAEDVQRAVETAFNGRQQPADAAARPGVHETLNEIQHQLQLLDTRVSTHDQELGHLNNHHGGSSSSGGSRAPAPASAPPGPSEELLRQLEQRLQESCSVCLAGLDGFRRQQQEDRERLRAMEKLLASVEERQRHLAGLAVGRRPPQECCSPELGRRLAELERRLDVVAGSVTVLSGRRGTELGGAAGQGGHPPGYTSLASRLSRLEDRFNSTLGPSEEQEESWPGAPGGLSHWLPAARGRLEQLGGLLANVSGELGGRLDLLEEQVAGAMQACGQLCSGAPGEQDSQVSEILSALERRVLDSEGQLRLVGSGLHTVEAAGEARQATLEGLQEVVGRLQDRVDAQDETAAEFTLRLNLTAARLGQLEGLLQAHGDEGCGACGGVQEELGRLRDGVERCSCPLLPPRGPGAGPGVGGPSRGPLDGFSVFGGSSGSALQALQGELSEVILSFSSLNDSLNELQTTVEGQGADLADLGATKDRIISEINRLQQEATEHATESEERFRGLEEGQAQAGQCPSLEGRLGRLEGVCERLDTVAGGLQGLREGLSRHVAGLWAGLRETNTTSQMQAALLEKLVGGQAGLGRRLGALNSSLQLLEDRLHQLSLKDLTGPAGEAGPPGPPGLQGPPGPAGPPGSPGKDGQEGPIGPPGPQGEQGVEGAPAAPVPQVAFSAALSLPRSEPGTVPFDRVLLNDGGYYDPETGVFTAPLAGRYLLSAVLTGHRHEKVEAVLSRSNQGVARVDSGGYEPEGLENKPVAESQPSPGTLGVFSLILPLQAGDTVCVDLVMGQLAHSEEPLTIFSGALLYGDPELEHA

Assay [1] concerns the target NF2 isoform 7, full length (human) (UniProt P35240). As to the kind of experiment: two-hybrid; pair-wise Y2H colony assay, 384 plate format (Figs 3A, S3): single-site NF2 variants in isoform 1 and isoform 7 as bait, WT partners as prey, in duplicate, with active ABL2 and with inactive ABL2KD.
Assay [2] has the same target. Briefly: two-hybrid; Y2H colony matrix (Fig 1B): NF2 constructs as bait, partners as prey; growth of diploid yeast on selective agar; each pair tested with active tyrosine kinase ABL2 and with kinase-dead ABL2KD (K35M) co-expressed.
In assay [3] the target is NF2 N-terminal half of isoform 7 (AA 1-K249) (human) (UniProt P35240). Described as above.
For assay [4], the target named is NF2 (moesin–ezrin–radixin-like [MERLIN] tumor suppressor) isoform 1, full length (human) (UniProt P35240). The assay is described as above.
Assay [5] concerns the target NF2 isoform 7 with an exon 17 derived C-terminus (human) (UniProt P35240). The assay is described as above.
Assay [6] deals with elastin microfibril interfacer 1 protein (human) (UniProt Q9Y6C2). As to the kind of experiment: two-hybrid; Y2H mapping matrix (Fig S1B), reverse bait-prey configuration of Fig 1B: NF2 N- and C-terminal halves as prey; growth on selective agar; with active ABL2 where the kinase mattered.
Assay [7] concerns the target phosphoinositide-3-kinase regulatory subunit 3 (human) (UniProt Q92569). As to the kind of experiment: condition: only without active tyrosine kinase ABL2; two-hybrid; as a3 (Fig S1B), without active tyrosine kinase ABL2.
The target is the same in assay [8]. Briefly: two-hybrid; Y2H mapping matrix (Fig S1B), reverse bait-prey configuration of Fig 1B: NF2 N- and C-terminal halves as prey; growth on selective agar; with active ABL2 where the kinase mattered.
For assay [9], the target named is NF2 isoform 1 S265L (human) (UniProt P35240). Briefly: two-hybrid; pair-wise Y2H colony assay, 384 plate format (Figs 3A, S3): single-site NF2 variants in isoform 1 and isoform 7 as bait, WT partners as prey, in duplicate, with active ABL2 and with inactive ABL2KD.
The target in assay [10] is NF2 isoform 7, full length (human) (UniProt P35240). As to the kind of experiment: two-hybrid; reverse Y2H strains (RBait_S3 / RPrey_S3): interacting pairs repress growth on agar lacking adenine; NF2-Iso7 as bait (pBTM116-D9), WT partners as prey; 30°C; PIK3R3 with ABL2.
The target in assay [11] is NF2 isoform 1 S518D (human) (UniProt P35240). Briefly: two-hybrid; Y2H colony matrix (Fig 1B): NF2 constructs as bait, partners as prey; growth of diploid yeast on selective agar; each pair tested with active tyrosine kinase ABL2 and with kinase-dead ABL2KD (K35M) co-expressed.
In assay [12] the target is NF2 isoform 7, full length (human) (UniProt P35240). As to the kind of experiment: condition: only without active ABL2 (kinase-dead ABL2KD co-expressed); two-hybrid; as a1 (Fig 1B), result with kinase-dead ABL2KD (K35M) only, no active tyrosine kinase.
The target in assay [13] is NF2 isoform 7 with an exon 17 derived C-terminus (human) (UniProt P35240). As to the kind of experiment: two-hybrid; as a1 (Fig 1B), result with kinase-dead ABL2KD (K35M) only, no active tyrosine kinase.

No constants are given. Whether binding was seen depends on the method and setting. Some entries that bind do so weakly or less than the wild type.

“NF2 C-terminal half of isoform 1 (AA M308-595) (from UniProt P35240-1 308-595) (domain or fragment)”: the binding result in assay [1] was “binds weakly”; in assay [2] it was “binds”; in [3] it was “no binding”; in assay [4], “no binding”; in assay [5] it was “binds”; in [6], “binds”.

Turning to “NF2 C-terminal half of isoform 7 (AA M225-507) (from UniProt P35240-4 225-507) (domain or fragment)”, the binding entry in [2] is listed as “binds”; in [3] it was “no binding”; in [4] it was “no binding”; in assay [5], “binds”; in assay [6] it was “binds”.

In the case of “NF2 N-terminal half of isoform 7 (AA 1-K249) (from UniProt P35240-4 1-249) (domain or fragment)”, the binding result in assay [7] is “no binding”; in [8], “binds”.

Take “elastin microfibril interfacer 1 protein (from UniProt Q9Y6C2 1-1016)”: the binding result in [9] is recorded as “binds”; in [1], “binds”; in assay [10], “binds”; in assay [2], “binds”; in assay [4], “no binding”; in assay [5], “binds”. In addition, the binding result in [11] is “binds weakly”; in [6] it was “binds”.

For the substance “phosphoinositide-3-kinase regulatory subunit 3 (from UniProt Q92569 1-461)”, the binding result in assay [7] is reported as “no binding”; in assay [12] it was “no binding”; in assay [1] it was “binds weakly”; in [10], “binds”; in assay [13], “binds weakly”; in [2], “binds”. Besides, the binding entry is given as “binds” in assay [3], “no binding” in assay [4], “binds” in [5] and “binds” in assay [8].
